# Some of the results follow.
# Tests used:
# Experiment in all cases: glycan array binding signal (z-score within array); higher = stronger binding
# Conditions in all cases: glycan notation: IUPAC condensed, linker removed
# [1] = biological target: Fuc(a1-2)[Gal(a1-3)]Gal(b1-4)GlcNAc(b1-6)GalNAc
# Outline: (§1)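 Negative Z-scores can be read as non-binding. The Z-score is calculated within each array and then averaged across arrays of one protein sequence at different concentrations or buffers and across linkers. Arrays, 3228 in all, were curated from the Consortium for Functional Glycomics database and kept only where the protein sequence was available.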
# [2] = biological target: Fuc(a1-2)[Gal(a1-3)]Gal(b1-4)[Fuc(a1-3)]Glc
# Outline: as §1
# [3] = biological target: Fuc(a1-2)[Gal(a1-3)]Gal(b1-4)[Fuc(a1-3)]GlcNAc
# Outline: as §1
# [4] = biological target: Fuc(a1-2)[Gal(a1-3)]Gal(b1-4)[Fuc(a1-3)]GlcNAc(b1-3)GalNAc
# Outline: as §1
# [5] = biological target: Fuc(a1-2)[Gal(a1-4)]Gal(b1-4)GlcNAc
# Outline: as §1
# [6] = biological target: Fuc(a1-2)[GalNAc(a1-3)]Gal
# Outline: as §1
# [7] = biological target: Fuc(a1-2)[GalNAc(a1-3)]Gal(b1-3)GalNAc(a1-3)[Fuc(a1-2)]Gal(b1-4)GlcNAc
# Outline: as §1
# [8] = biological target: Fuc(a1-2)[GalNAc(a1-3)]Gal(b1-3)GalNAc(b1-3)Gal(a1-4)Gal(b1-4)Glc
# Outline: as §1
# [9] = biological target: Fuc(a1-2)[GalNAc(a1-3)]Gal(b1-3)GlcNAc
# Outline: as §1
# [10] = biological target: Fuc(a1-2)[GalNAc(a1-3)]Gal(b1-3)GlcNAc(b1-2)Man(a1-3)[Fuc(a1-2)[GalNAc(a1-3)]Gal(b1-3)GlcNAc(b1-2)Man(a1-6)]Man(b1-4)GlcNAc(b1-4)GlcNAc
# Outline: as §1
# [11] = biological target: Fuc(a1-2)[GalNAc(a1-3)]Gal(b1-3)GlcNAc(b1-2)Man(a1-3)[Fuc(a1-2)[GalNAc(a1-3)]Gal(b1-3)GlcNAc(b1-2)Man(a1-6)]Man(b1-4)GlcNAc(b1-4)[Fuc(a1-6)]GlcNAc
# Outline: as §1
# [12] = biological target: Fuc(a1-2)[GalNAc(a1-3)]Gal(b1-3)GlcNAc(b1-3)GalNAc
# Outline: as §1
# [13] = biological target: Fuc(a1-2)[GalNAc(a1-3)]Gal(b1-3)GlcNAc(b1-6)GalNAc
# Outline: as §1
# [14] = biological target: Fuc(a1-2)[GalNAc(a1-3)]Gal(b1-4)Glc
# Outline: as §1
# [15] = biological target: Fuc(a1-2)[GalNAc(a1-3)]Gal(b1-4)GlcNAc
# Outline: as §1
# [16] = biological target: Fuc(a1-2)[GalNAc(a1-3)]Gal(b1-4)GlcNAc(b1-2)Man
# Outline: as §1
# [17] = biological target: Fuc(a1-2)[GalNAc(a1-3)]Gal(b1-4)GlcNAc(b1-2)Man(a1-3)[Fuc(a1-2)[GalNAc(a1-3)]Gal(b1-4)GlcNAc(b1-2)Man(a1-6)]Man(b1-4)GlcNAc(b1-4)GlcNAc
# Outline: as §1
# [18] = biological target: Fuc(a1-2)[GalNAc(a1-3)]Gal(b1-4)GlcNAc(b1-2)Man(a1-3)[Fuc(a1-2)[GalNAc(a1-3)]Gal(b1-4)GlcNAc(b1-2)Man(a1-6)]Man(b1-4)GlcNAc(b1-4)[Fuc(a1-6)]GlcNAc
# Outline: as §1
# [19] = biological target: Fuc(a1-2)[GalNAc(a1-3)]Gal(b1-4)GlcNAc(b1-3)Gal(b1-4)GlcNAc
# Outline: as §1
# [20] = biological target: Fuc(a1-2)[GalNAc(a1-3)]Gal(b1-4)GlcNAc(b1-3)Gal(b1-4)GlcNAc(b1-3)Gal(b1-4)GlcNAc
# Outline: as §1
# [21] = biological target: Fuc(a1-2)[GalNAc(a1-3)]Gal(b1-4)GlcNAc(b1-3)GalNAc
# Outline: as §1
# [22] = biological target: Fuc(a1-2)[GalNAc(a1-3)]Gal(b1-4)GlcNAc(b1-3)[Fuc(a1-2)[GalNAc(a1-3)]Gal(b1-4)GlcNAc(b1-6)]GalNAc
# Outline: as §1
# [23] = biological target: Fuc(a1-2)[GalNAc(a1-3)]Gal(b1-4)GlcNAc(b1-6)GalNAc
# Outline: as §1
# [24] = biological target: Fuc(a1-2)[GalNAc(a1-3)]Gal(b1-4)[Fuc(a1-3)]GlcNAc
# Outline: as §1
# [25] = biological target: Fuc(a1-2)[GalNAc(a1-3)]Gal(b1-4)[Fuc(a1-3)]GlcNAc(b1-3)GalNAc
# Outline: as §1
# [26] = biological target: Fuc(a1-2)[GalNAc(a1-4)]Gal(b1-4)GlcNAc
# Outline: as §1
# [27] = biological target: Fuc(a1-2)[GalNAc(b1-3)]Gal
# Outline: as §1
# [28] = biological target: Fuc(a1-3)GlcNAc
# Outline: as §1
# [29] = biological target: Fuc(a1-3)[Gal(b1-4)]Glc6S
# Outline: as §1
# [30] = biological target: Fuc(a1-3)[Gal(b1-4)]GlcNAc
# Outline: as §1
# [31] = biological target: Fuc(a1-3)[Gal(b1-4)]GlcNAc(b1-2)Man
# Outline: as §1
# [32] = biological target: Fuc(a1-3)[Gal(b1-4)]GlcNAc(b1-2)Man(a1-3)[Fuc(a1-3)[Gal(b1-4)]GlcNAc(b1-2)Man(a1-6)]Man(b1-4)GlcNAc(b1-4)GlcNAc
# Outline: as §1
# [33] = biological target: Fuc(a1-3)[Gal(b1-4)]GlcNAc(b1-2)Man(a1-3)[Fuc(a1-3)[Gal(b1-4)]GlcNAc(b1-2)Man(a1-6)]Man(b1-4)GlcNAc(b1-4)[Fuc(a1-6)]GlcNAc
# Outline: as §1
# [34] = biological target: Fuc(a1-3)[Gal(b1-4)]GlcNAc(b1-3)Gal(b1-3)[Fuc(a1-4)]GlcNAc
# Outline: as §1
# [35] = biological target: Fuc(a1-3)[Gal(b1-4)]GlcNAc(b1-3)GalNAc
# Outline: as §1
# [36] = biological target: Fuc(a1-3)[Gal(b1-4)]GlcNAc(b1-4)Gal(b1-4)[Fuc(a1-3)]GlcNAc
# Outline: as §1
# [37] = biological target: Fuc(a1-3)[Gal(b1-4)]GlcNAc(b1-4)Gal(b1-4)[Fuc(a1-3)]GlcNAc(b1-4)Gal(b1-4)[Fuc(a1-3)]GlcNAc
# Outline: as §1
# [38] = biological target: Fuc(a1-3)[Gal(b1-4)]GlcNAc(b1-6)GalNAc
# Outline: as §1
binder,measurement,setting,value
"Gal 4 (Mus musculus), P56470 (protein) MAYVPAPGYQPTYNPTLPYYQPIPGGLNVGMSVYIQGVASEHMKRFFVNFVVGQDPGSDVAFHFNPRFDGWDKVVFNTLQGGKWGSEERKRSMPFKKGAAFELVFIVLAEHYKVVVNGNPFYEYGHRLPLQMVTHLQVDGDLQLQSINFIGGQPLRPQGPPMMPPYPGPGHCHQQLNSLPTMEGPPTFNPPVPYFGRLQGGLTARRTIIIKGYVPPTGKSFAINFKVGSSGDIALHINPRMGNGTVVRNSLLNGSWGSEEKKITHNPFGPGQFFDLSIRCGLDRFKVYANGQHLFDFAHRLSAFQRVDTLEIQGDVTLSYVQI",glycan array binding signal (z-score),[1],-0.301
same,glycan array binding signal (z-score),[2],-0.242
same,glycan array binding signal (z-score),[3],-0.266
same,glycan array binding signal (z-score),[4],-0.221
same,glycan array binding signal (z-score),[5],-0.24
same,glycan array binding signal (z-score),[6],-0.239
same,glycan array binding signal (z-score),[7],3.22
same,glycan array binding signal (z-score),[8],-0.256
same,glycan array binding signal (z-score),[9],4.51
same,glycan array binding signal (z-score),[10],6.91
same,glycan array binding signal (z-score),[11],1
same,glycan array binding signal (z-score),[12],1.18
same,glycan array binding signal (z-score),[13],3.37
same,glycan array binding signal (z-score),[14],5.4
same,glycan array binding signal (z-score),[15],3.27
same,glycan array binding signal (z-score),[16],4.19
same,glycan array binding signal (z-score),[17],3.77
same,glycan array binding signal (z-score),[18],0.197
same,glycan array binding signal (z-score),[19],4.64
same,glycan array binding signal (z-score),[20],4.02
same,glycan array binding signal (z-score),[21],0.726
same,glycan array binding signal (z-score),[22],2.04
same,glycan array binding signal (z-score),[23],0.735
same,glycan array binding signal (z-score),[24],-0.226
same,glycan array binding signal (z-score),[25],-0.196
same,glycan array binding signal (z-score),[26],-0.226
same,glycan array binding signal (z-score),[27],-0.221
same,glycan array binding signal (z-score),[28],-0.234
same,glycan array binding signal (z-score),[29],-0.18
same,glycan array binding signal (z-score),[30],-0.236
same,glycan array binding signal (z-score),[31],-0.291
same,glycan array binding signal (z-score),[32],-0.242
same,glycan array binding signal (z-score),[33],-0.203
same,glycan array binding signal (z-score),[34],-0.208
same,glycan array binding signal (z-score),[35],-0.224
same,glycan array binding signal (z-score),[36],-0.245
same,glycan array binding signal (z-score),[37],-0.221
same,glycan array binding signal (z-score),[38],-0.301

# Reference: the supplement of paper PMC8728848
